Over roughly 110,000 compounds, “z-score” has its median near -0.1; the highest 2% begin near 2. Some of the results follow. Active and inactive are the calls of the source.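 The calls were made as follows: active = z-score in the third read window above 3 or below -3; inactive = the rest.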

In the assay the target is Metabotropic glutamate receptor 8 (Rattus norvegicus) (UniProt P70579). Description: rat mGluR8 modulators via GIRK flux, primary screen, cell-based, thallium flux, HTS (AID 488969). The conditions noted are these: HEK293 rat mGluR8, GIRK (G protein-gated inwardly rectifying potassium channel) thallium flux, FluoZin2; at 10 µM; stronger effect = higher value; submaximal glutamate (EC20) added with thallium.
Chain of UniProt P70579 (P70579 whole entry, looked up): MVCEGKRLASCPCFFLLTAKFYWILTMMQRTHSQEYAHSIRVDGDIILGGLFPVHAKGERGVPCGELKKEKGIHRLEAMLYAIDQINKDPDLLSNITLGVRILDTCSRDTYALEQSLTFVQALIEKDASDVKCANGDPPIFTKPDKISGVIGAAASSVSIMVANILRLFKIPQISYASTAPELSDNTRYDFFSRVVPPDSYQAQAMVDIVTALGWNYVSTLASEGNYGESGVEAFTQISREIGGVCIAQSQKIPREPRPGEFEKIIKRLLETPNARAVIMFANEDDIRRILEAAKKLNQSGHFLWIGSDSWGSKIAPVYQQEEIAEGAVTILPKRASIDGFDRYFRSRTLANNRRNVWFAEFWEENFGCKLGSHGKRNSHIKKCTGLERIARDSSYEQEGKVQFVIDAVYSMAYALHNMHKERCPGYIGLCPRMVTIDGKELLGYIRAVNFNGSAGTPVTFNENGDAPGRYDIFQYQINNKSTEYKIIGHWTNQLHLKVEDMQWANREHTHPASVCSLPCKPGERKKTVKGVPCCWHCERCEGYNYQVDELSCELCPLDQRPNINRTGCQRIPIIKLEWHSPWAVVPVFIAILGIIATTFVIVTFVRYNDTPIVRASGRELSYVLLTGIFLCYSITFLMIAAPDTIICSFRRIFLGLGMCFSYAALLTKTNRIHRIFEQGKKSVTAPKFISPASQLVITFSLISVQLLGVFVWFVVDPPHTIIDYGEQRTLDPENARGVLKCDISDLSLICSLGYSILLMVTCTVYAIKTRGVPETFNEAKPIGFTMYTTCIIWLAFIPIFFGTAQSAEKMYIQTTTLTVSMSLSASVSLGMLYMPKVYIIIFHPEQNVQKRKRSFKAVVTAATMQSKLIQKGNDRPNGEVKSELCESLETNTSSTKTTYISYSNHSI
Compound `O=C(COC(=O)c1ccccc1SCC(=O)NC1CCCCC1)NC1CCCCC1` returned a z-score of -0.0361.
Compound `CCCn1c(SCC(=O)Nc2nnc(C(C)C)s2)nc2c1c(=O)n(C)c(=O)n2C` registered a z-score of -0.147.
The value for `O=C(Nc1nc2ccccc2[nH]1)c1ccccc1F` was 0.299; that for `Cc1csc(NC(=O)c2ccc(S(=O)(=O)N(C)c3ccccc3)cc2)n1` was 0.497; that for `O=C(COc1cccc(NC(=O)c2cccc([N+](=O)[O-])c2)c1)c1ccc(Br)cc1` was -0.145.
In the case of `CCOCCc1nnc(NC(=O)CN2C(=O)c3ccccc3C2=O)s1` it was 1.6.
Compound `CCCCN(CC)C(=O)c1ccc(-c2ccccc2)cc1` gave a z-score of 0.132.
As for `Cc1cc(Nc2c(C)n(C)n(-c3ccccc3)c2=O)n2c(nc3ccccc32)c1C#N`, the z-score was -0.0598.
Compound `NC(=O)c1ccc(NC(=O)c2ccccc2S(=O)(=O)c2ccccc2[N+](=O)[O-])cc1` gave a z-score of 0.483.
In the case of `CCOC(=O)CN1CC23C=CC(O2)C(C(=O)NC2CCCCC2)C3C1=O` (stereo unspecified) it was 0.245.
The value for `O=C(NCC1CCCO1)c1sc2ccccc2c1Cl` (stereo unspecified) was -0.467; that for `Cn1nnnc1SCC(=O)N1c2ccccc2CCc2ccccc21` was -0.0219; that for `COc1ccc(Cc2nnc(NC(=O)C3CCCO3)s2)cc1` (stereo unspecified) was -0.302.
With `O=C(NCc1ccco1)Oc1ccccc1`, the z-score is -0.208.
The compound `CN(c1cccc(NC(=O)CN(c2cccc(Cl)c2)S(=O)(=O)c2ccccc2)c1)S(C)(=O)=O` registered a z-score of -0.202.
`Nc1ccccc1-c1nc2ccccc2[nH]1` had a z-score of -0.0477.
The value for `Cc1cccc(N2C(=O)CC(N3CCN(Cc4ccc5c(c4)OCO5)CC3)C2=O)c1` (stereo unspecified) was -0.681; that for `Cc1nn(-c2ccc(F)cc2)c2c1cc(C#N)c1nc3ccccc3n12` was -0.176; that for `Cc1cc(-n2c(C)cc(C(=S)N3CCOCC3)c2C)ccc1Br` was -1.47.
`CCCCNC(=O)COC(=O)CCC(=O)c1cccs1` displayed a z-score of 0.202.
The value for `CCC(=O)N1CCc2cc(S(=O)(=O)NC(C(=O)NCc3ccc(F)cc3)C(C)C)ccc21` (stereo unspecified) was -0.156.
`N#Cc1cc2cc3c(cc2nc1SCC(=O)OC1CCCCC1)OCO3` showed a z-score of 0.0517.
Compound `O=c1oc2c(CN3CCOCC3)c(O)ccc2c2ccccc12` showed a z-score of -0.177.
In the case of `CC(C)(/C=N/O)/[N+]([O-])=C/C=[N+](\[O-])C(C)(C)/C=N/O` it was -0.189.
`COc1ccc(NC(=O)C=C(C)C)cc1Cl` came in with a z-score of -0.139.
Compound `O=C(O)CCSc1nnc(SCC(=O)NCC(F)(F)F)s1` gave a z-score of 0.131.
In the case of `Cc1ccc(-c2cnc(N)n2C)cc1C` it was 0.959; in that of `Cc1onc(-c2ccccc2)c1C(N)=O`, -0.0284.
`COc1ccc(NC(=O)CCCCCN2C(=O)CCC2=O)cc1Cl` had a z-score of -0.291.
Compound `COc1ccc(N2C(=O)CC(N3CCN(C4CCc5ccccc5C4)CC3)C2=O)cc1` (stereo unspecified) had a z-score of 0.44.
Consider `Cc1cc2c(cc1C)NC(c1c(C)n(C)n(-c3ccccc3)c1=O)C1=C(CC(C)(C)CC1=O)N2` (stereo unspecified), for which the z-score was active: -3.25.

(Values after PubChem BioAssay AID488969 (Vanderbilt High Throughput Screening Facility, 2010).)
